Our source for the self-cleavage values is the RNAGym collection of RNA variant scans (doi:10.7554/elife.90254).

Read counts are not given, so values of variants with three or more changes are uncertain.

B1: LINE1-mini (parent)
chain: GGCAGAGCUCAACACAGCGUGGCAAAGUGGCUGUGGCUAGACUGCC

In this data set the parent is B1. The data set is described as follows: self-cleavage, relative activity (ratio to wild type); higher = more cleavage; in vitro, sequencing; the parent is a self-cleaving ribozyme.
On to C13U C15A C18G U28A, for which the self-cleavage came to 0.03.

As to C13U A16G C31U, the self-cleavage came to 0.03.

Take C13U G19U A25C G40A: the self-cleavage was determined as 0.04.

As for C13G U34C A39G, the self-cleavage was 0.24.

For C13G U28C G29U, the self-cleavage was 0.11.

For A14U G21U A26C C37A, the self-cleavage is 0.26.

Regarding C13U G36U C37G C46A, the self-cleavage is 0.27.

For the variant A14U G33U C37A, the self-cleavage was found to be 0.01.

Regarding C13U G19C A25U, the self-cleavage stood at 0.07.

Consider A14C U20G A24G C31A, for which the self-cleavage was determined as 0.

Consider A14U C37A U38C, for which the self-cleavage is 0.18.

As for A14G A24G G33U, the self-cleavage was found to be 0.02.

Regarding C13U G36C G40A, the self-cleavage amounted to 0.03.

Regarding A14U G17U U32G G33A C42A, the self-cleavage was 0.1.

Consider C13U G21C G44C, for which the self-cleavage came to 0.03.

Take A14U C18A G35U: the self-cleavage is 0.06.

In the case of C13G U28G U32G, the self-cleavage came to 0.01.

A14C C23U U43A: the self-cleavage was found to be 0.04.

Regarding A14G U20A A26U, the self-cleavage came out at 0.67.

With C13U G21U C42U C45A, the self-cleavage stood at 0.13.

C13U G27A C46G: the self-cleavage was determined as 0.13.

With A14U C15G G27C G33U, the self-cleavage stood at 0.04.

On to A14G G17A G40U, for which the self-cleavage came out at 0.18.

In the case of A14U C15A G19U, the self-cleavage is 0.08.

Turning to C13U G30A A39G U43A, the self-cleavage came to 0.03.

For the variant C13U C31A C42U, the self-cleavage was determined as 0.

Take A14C G29A A39C C42U: the self-cleavage came out at 0.04.

As for C13U A14C C15G G27A U28C U43A G44C, the self-cleavage was 0.01.

Take C13U G17A C18G A39C: the self-cleavage stood at 0.01.

Consider A14C C15G G17C G19A U43C C45G, for which the self-cleavage was determined as 0.28.

On to A14G C15G A25G, for which the self-cleavage is 0.

For the variant A14G C15A G36U, the self-cleavage stood at 0.01.

As to C13U A14C A25G G36U, the self-cleavage worked out at 0.01.

Take C13U C15G G27U U34A: the self-cleavage was determined as 0.01.

Regarding C13U C15U C18G G19A U38A A41G C45G, the self-cleavage is 0.04.

In the case of C13U G17U C23G, the self-cleavage amounted to 0.11.

For the variant C13U G33C G40A G44U, the self-cleavage stood at 0.05.

As for A14C G27C G36C C42G, the self-cleavage amounted to 0.04.

For C13U A26G C45U, the self-cleavage amounted to 0.11.

Turning to A14C U43G C46U, the self-cleavage was 0.02.

On to C13U G22A G44U, for which the self-cleavage was determined as 0.13.

As for A14C A26G G44A, the self-cleavage came out at 0.09.

With A14U G19U U32C A39G, the self-cleavage was 0.09.

In the case of C13U G21U G44C, the self-cleavage was found to be 0.06.

A14U A24U C45G: the self-cleavage came out at 0.15.

For the variant A14U G19U C37A G40C C46U, the self-cleavage was found to be 0.

For A14G A16U G17U C18G A39U, the self-cleavage came to 0.06.

In the case of A14G G17U U43A G44C, the self-cleavage came out at 0.07.

As for A14U C18U A26C G30A, the self-cleavage came out at 0.06.

In the case of C13U U28A A41U, the self-cleavage is 0.01.

Turning to A14C G27C C42U, the self-cleavage was determined as 0.16.

Regarding C13U A24U A25U A39G C42A, the self-cleavage was 0.21.

As to C13U U34G C37A G40C C42U, the self-cleavage was determined as 0.06.

On to C13U U38G C46A, for which the self-cleavage was determined as 0.03.

Turning to C13U C31A U32C, the self-cleavage turned out to be 0.03.

Consider A14U A16C U32C A39U A41U, for which the self-cleavage is 0.02.

With C13U G27C G30U U32C, the self-cleavage is 0.07.

A14C C37G C45A: the self-cleavage came to 0.04.

As to A14U G29A G35A, the self-cleavage worked out at 0.08.

Consider A14C G17A G36C, for which the self-cleavage came out at 0.01.

For the variant A14G A26U G27U, the self-cleavage is 0.15.

Regarding A14C C18A A41G, the self-cleavage was 0.05.

Take A14G A25G G44U: the self-cleavage stood at 0.04.

With A14U A26C G29A U38A, the self-cleavage was 0.34.

With A14G G17U G22C C23A C37U A41G, the self-cleavage came out at 0.05.

As for C13U G30U U43A, the self-cleavage came to 0.08.

On to C13U C31U C37A C45U, for which the self-cleavage was found to be 0.02.

As to C13U A25U G27U, the self-cleavage was determined as 0.02.

For the variant C13U C15U G35U, the self-cleavage turned out to be 0.06.

For the variant A14C A16C G19C U32C, the self-cleavage was 0.15.

Regarding A14U G22U A26U, the self-cleavage came to 0.54.

On to C13U G21U C37G, for which the self-cleavage was determined as 0.02.

With A14G A16C G22A, the self-cleavage turned out to be 0.02.

Regarding A14C C31G C42U, the self-cleavage came to 0.03.

Regarding C13U C18A C45G, the self-cleavage came out at 0.03.

For the variant C13U C37A A41U, the self-cleavage stood at 0.09.

Consider A14C G17U G30U U38G G40A G44U, for which the self-cleavage was found to be 0.03.

On to C13U C15G C23A, for which the self-cleavage was 0.01.

Take A14G U28C A39U: the self-cleavage was 0.02.

As to A14G U32C A41U, the self-cleavage turned out to be 0.38.

C13G U28G C42A: the self-cleavage worked out at 0.02.

As for A14G U32G G36A, the self-cleavage was 0.01.

Regarding A14G A16G C23A A24G A26U C31G, the self-cleavage amounted to 0.01.

Consider A14G C15A C45U, for which the self-cleavage was determined as 0.05.

A14U C23G C37U C45A C46U: the self-cleavage was determined as 0.06.

Regarding C13U A14U G21A A41G, the self-cleavage came out at 0.23.

Take A14C G21U C37A A41U: the self-cleavage came out at 0.03.

Regarding A14C C15A G40C, the self-cleavage was determined as 0.01.

As for A14C A24C U28G G35A, the self-cleavage turned out to be 0.02.

As for A14U A24G A26G G36U, the self-cleavage was 0.02.

Regarding A14G G27C G35A, the self-cleavage came to 0.08.

Regarding C13U A14G A16U G33U U38G, the self-cleavage came to 0.02.

On to A14G C18U G19U C46A, for which the self-cleavage stood at 0.19.

Take A14C U38C C42G: the self-cleavage was determined as 0.19.

C13U A24G U28G C46A: the self-cleavage worked out at 0.17.

Consider A14C G30C C31G G36C, for which the self-cleavage came to 0.1.

For C13U G36A G40U C42A, the self-cleavage is 0.03.

A14G G22U C46G: the self-cleavage amounted to 0.69.

As for C13U U28G G40C, the self-cleavage came out at 0.03.

For the variant C13U G30A C45U, the self-cleavage turned out to be 0.08.

For C13U C18G C23U, the self-cleavage is 0.04.

As for A14C C23G U28G U32A C37G, the self-cleavage worked out at 0.

In the case of C13U G22A A26U G27C, the self-cleavage was found to be 0.06.

Turning to A14G A25U G30U, the self-cleavage is 0.53.

Regarding A14G A25G G36U, the self-cleavage was found to be 0.09.

Consider A14G C15A C23U G27U U32C, for which the self-cleavage was determined as 0.05.

For A14U G21C C23U U28A C37U, the self-cleavage amounted to 0.03.

For C13U G35A G36A A41G, the self-cleavage stood at 0.13.

Take C13U C23A U28A C31U A41C: the self-cleavage amounted to 0.04.

As to A14G G27A G30U, the self-cleavage stood at 0.13.

Turning to C13U C31A C46A, the self-cleavage was 0.01.

For the variant A14G C18A G29A C42G, the self-cleavage was 0.04.

Consider A14C C18U C23U C42U, for which the self-cleavage is 0.05.

As for C13U G19C C46U, the self-cleavage is 0.05.

As for C13U G21U G22C, the self-cleavage worked out at 0.35.

Consider A14U A26C G40A, for which the self-cleavage stood at 0.01.

On to C13U C42U C46A, for which the self-cleavage was determined as 0.06.

Take A14G C15U C31G G36U A39U: the self-cleavage worked out at 0.01.

As to C13U G21A G36C, the self-cleavage was found to be 0.03.

Regarding A14C C15A A24U, the self-cleavage was determined as 0.15.

As for A14G G17A C31A G40A, the self-cleavage was 0.

As for A14U C23A G33U, the self-cleavage worked out at 0.08.

Take A14G G21U C46A: the self-cleavage was 0.78.

As for A14C C15U A26U, the self-cleavage was determined as 0.28.

As for A14U A26C G36A, the self-cleavage amounted to 0.03.

On to C13U G33A G44C, for which the self-cleavage came to 0.17.

Regarding A14G G19C A39U C45A, the self-cleavage was found to be 0.44.

Take A14C G30U U38C C45G: the self-cleavage is 0.01.

As to C13U C15U G35A A41G, the self-cleavage was found to be 0.12.

As for C13U A16C G33A C46A, the self-cleavage stood at 0.08.

Take C13U U38C C42A: the self-cleavage is 0.06.

Consider C13U U20G U28C G44U, for which the self-cleavage worked out at 0.09.

Take A14U G33C G44U: the self-cleavage turned out to be 0.05.

Take A14U G22C U34A: the self-cleavage stood at 0.2.

A14U C37A U43A: the self-cleavage turned out to be 0.04.

For the variant C13U G17U G33A C46A, the self-cleavage stood at 0.08.

As to C13U C23A A24U U43A, the self-cleavage was determined as 0.03.

On to A14U G27U G30A C42A, for which the self-cleavage worked out at 0.05.

For the variant A14C A16C G21U, the self-cleavage turned out to be 0.

On to C13U A16U G27U U28G, for which the self-cleavage came out at 0.13.

On to C13U A16U G19A G27A, for which the self-cleavage turned out to be 0.09.

For the variant A14C G29U U43A C45A C46U, the self-cleavage was 0.03.

Consider A14G G17A C46A, for which the self-cleavage was found to be 0.04.

Consider C13U U20G A26U G35U, for which the self-cleavage is 0.1.

As to A14U C15U G17C U38C, the self-cleavage was 0.03.

For the variant A14G G17A G33A, the self-cleavage turned out to be 0.02.

For A14U C15G G27C, the self-cleavage is 0.04.

Take A14C G22U A41G: the self-cleavage is 0.03.

On to A14C C31G U32A G36U, for which the self-cleavage stood at 0.04.

For the variant A14C G21A G22C A24C, the self-cleavage was 0.03.

C13U A41C C42A: the self-cleavage was found to be 0.06.

Turning to C13U G29U G35U, the self-cleavage was found to be 0.41.

For C13U U20A U28G C46A, the self-cleavage stood at 0.06.

On to A14C C18U A24C G36C, for which the self-cleavage is 0.

For A14C C15A G30C C46G, the self-cleavage came out at 0.02.

A14U C23U G36C: the self-cleavage was 0.05.

With C13U G17U G22U, the self-cleavage was determined as 0.03.

For A14C C18U U28A, the self-cleavage stood at 0.11.

As for A14C A25G G30A G36U, the self-cleavage worked out at 0.05.

Regarding C13U U20A A39G, the self-cleavage is 0.05.

Consider C13U C31A C42G U43C, for which the self-cleavage is 0.02.

Consider A14U A26C A41C, for which the self-cleavage was 0.02.

For the variant A14G U20A C31U, the self-cleavage amounted to 0.03.

For A14U G27U C37U A39G, the self-cleavage amounted to 0.

For the variant C13U G30A G44U, the self-cleavage is 0.01.

On to A14U C15G C23U C46G, for which the self-cleavage came to 0.03.

Regarding A14C G21A C31G C42G, the self-cleavage was 0.01.
